Assay results published in paper PMC11967820, “Deep Learning Combined with Quantitative Structure‒Activity Relationship Accelerates De Novo Design of Antifungal Peptides” (Advanced Science, 2025).
≈ marks a conversion by molar mass, not a printed value. Read-outs that look alike come from different tables or passages of the source.

Key:
C. tropicalis = experiment: Minimal inhibitory concentration (MIC), microdilution method; assay type: cell-based, Candida tropicalis; conditions: Table 3, 96-well plates, PBS 20 mM pH 6.0, 1 × 10^6 CFU mL^−1, 20 h at 30 °C, MTT staining, mean ± SD, n = 3
Source text: (§1) Each experiment was replicated three times.

C. neoformans = conditions: Table 3; microdilution, 96-well plates, PBS 20 mM pH 6.0, 1 × 10^6 CFU mL^−1, 20 h at 30 °C, MTT staining; mean ± SD, n = 3
C. parapsilosis = experiment: Minimal inhibitory concentration (MIC), microdilution method; assay type: cell-based; conditions: Table 3, 96-well plates, PBS 20 mM pH 6.0, 1 × 10^6 CFU mL^−1, 20 h at 30 °C, MTT staining, mean ± SD, n = 3
Source text: as §1

C. albicans [1] = assay type: cell-based, Candida albicans; conditions: for MICs against the four tested pathogenic fungi: C. albicans, C. tropicalis, C. parapsilosis and C. neoformans; for MIC100 C. albicans: Table 3, two-fold dilution in PBS 20 mM pH 6.0, 1 × 10^6 CFU mL^−1, 20 h at 30 °C, MTT staining, mean ± SD, n = 3; for MIC100 C. albicans / MIC C.albicans: microdilution, 96-well plates; for MIC C.albicans: Table S5, concentration of the drug in ungrown fungus wells
Source text: as §1

[2] = test system: fluconazole‐resistant C. albicans; conditions: at 1 × MIC; 28 °C, 12 h, absorbance 540 nm
C. albicans [3] = conditions: for splenic index / thymic index: n = 3
Experimental: The systemic C. albicans infection mouse model was established following the reported reference.^[ [22] ^] Cyclophosphamide (150 mg kg^−1 d^−1) was first injected intraperitoneally for 3 days to disrupt the immunity of female Kunming mice (Experimental Animal Center of Zhengzhou University, SCXK Yu 2021–0009). […] The injections were given once every 24 h during the first week and once every 48 h during the second week. Survival rates and body weights of the mice in each group were recorded during treatment. At 0, 7, and 14 d of treatment, duplicate samples (n = 3) of the spleen and thymus were collected from each group to determine the immune organ index.^[ [54] ^] The ratio of organ weight to body weight was adopted to describe the immune organ index. At 14 d of treatment, liver, lung, kidney, and spleen tissues were collected from each group of mice and immersed in 4% paraformaldehyde fixative. Subsequently, the tissue samples were embedded in paraffin, followed by sectioned and stained with hematoxylin‐eosin (H&E). Finally, optical microscopy was used to observe the pathological changes in the organ tissues of the mice.

C. albicans [4] = conditions: 1 × MIC in SD broth, 28 °C, 3, 6 and 9 h
[5] = Day 7, 0.4 mg kg^−1 intraperitoneally
[6] = Day 7, 0.8 mg kg^−1 intraperitoneally

Row | Compound | MIC100 C. tropicalis (C. tropicalis) [µg/mL] | MIC100 C. neoformans (C. neoformans) [µg/mL] | MIC100 C. parapsilosis (C. parapsilosis) [µg/mL] | MICs against the four tested pathogenic fungi (C. albicans [1]) [µg/mL] | MIC100 C. albicans (C. albicans [1]) [µg/mL] | MIC C.albicans (C. albicans [1]) [µg/mL] | inhibition of growth of fluconazole‐resistant C. albicans [2] | average increased weight after 14 days of treatment (C. albicans [3]; 0.4 mg kg^−1 intraperitoneally, n = 10) [g] | survival rate (C. albicans [3]; 0.8 mg kg^−1 AFP‐13 intraperitoneally, 14 days, n = 10) [%] | average increased weight after 14 days of treatment (C. albicans [3]; 0.8 mg kg^−1 intraperitoneally, n = 10) [g] | pathological changes of liver, lung, kidney and spleen (H&E sections) (C. albicans [3]; 0.4 and 0.8 mg kg^−1, 14th day of treatment) | splenic index (C. albicans [3]; [5]) [mg/g] | thymic index (C. albicans [3]; [5]) [mg/g] | splenic index (C. albicans [3]; [6]) [mg/g] | thymic index (C. albicans [3]; [6]) [mg/g] | thymic index (C. albicans [3]; Day 14, 0.4 mg kg^−1 intraperitoneally) [mg/g] | thymic index (C. albicans [3]; Day 14, 0.8 mg kg^−1 intraperitoneally) [mg/g] | morphological and ultrastructural changes of C. albicans cells (SEM, TEM) (C. albicans [4])
1 | CC[C@H](C)[C@H](NC(=O)[C@H](CCCNC(=N)N)NC(=O)[C@H](Cc1c[nH]c2ccccc12)NC(=O)[C@H](CC(C)C)NC(=O)[C@@H](N)CCCNC(=N)N)C(=O)N[C@H](C(=O)N[C@H](C(=O)N[C@H](C(=O)N[C@@H](CCCNC(=N)N)C(=O)N[C@@H](CCCNC(=N)N)C(=O)N[C@@H](C)C(=O)N[C@@H](CCCNC(=N)N)C(N)=O)[C@@H](C)CC)C(C)C)C(C)C [AFP‐8] | 3.62 ± 0.14 (≈ 2.27 µM) | 3.77 ± 0.07 (≈ 2.37 µM) | 2.86 ± 0.41 (≈ 1.8 µM) | < 10 | 7.67 ± 0.10 (≈ 4.81 µM) | 7.81 (≈ 4.9 µM) | – | – | – | – | – | – | – | – | – | – | – | –
2 | CC[C@H](C)[C@H](NC(=O)[C@H](CC(C)C)NC(=O)[C@@H](NC(=O)[C@@H](NC(=O)[C@H](CCCNC(=N)N)NC(=O)[C@H](Cc1c[nH]c2ccccc12)NC(=O)[C@H](CC(C)C)NC(=O)[C@@H](N)CCCNC(=N)N)[C@@H](C)CC)C(C)C)C(=O)N[C@@H](CCCNC(=N)N)C(=O)N[C@@H](CCCNC(=N)N)C(=O)N[C@@H](C)C(=O)N[C@@H](CCCCN)C(N)=O [AFP‐10] | 2.32 ± 0.12 (≈ 1.47 µM) | 3.80 ± 0.04 (≈ 2.41 µM) | 2.61 ± 0.33 (≈ 1.65 µM) | < 10 | 3.51 ± 0.09 (≈ 2.22 µM) | – | more than 99% | – | – | – | – | – | – | – | – | – | – | –
3 | CC[C@H](C)[C@H](NC(=O)[C@H](CC(C)C)NC(=O)[C@@H](NC(=O)[C@@H](NC(=O)[C@H](CCCNC(=N)N)NC(=O)[C@H](Cc1c[nH]c2ccccc12)NC(=O)[C@H](CC(C)C)NC(=O)[C@@H](N)CCCNC(=N)N)[C@@H](C)CC)C(C)C)C(=O)N[C@@H](CCCNC(=N)N)C(=O)N[C@@H](CCCCN)C(=O)N[C@@H](C)C(=O)N[C@@H](CCCNC(=N)N)C(N)=O [AFP‐11] | 2.35 ± 0.27 (≈ 1.49 µM) | 2.92 ± 0.37 (≈ 1.85 µM) | 5.80 ± 0.88 (≈ 3.67 µM) | < 10 | 7.48 ± 0.32 (≈ 4.74 µM) | – | – | – | – | – | – | – | – | – | – | – | – | –
4 | CC[C@H](C)[C@H](NC(=O)[C@H](CCCNC(=N)N)NC(=O)[C@H](Cc1c[nH]c2ccccc12)NC(=O)[C@H](CCCNC(=N)N)NC(=O)[C@@H](N)C(C)C)C(=O)N[C@@H](CCCNC(=N)N)C(=O)N[C@@H](CC(C)C)C(=O)N[C@H](C(=O)N[C@@H](CCCNC(=N)N)C(=O)N[C@@H](CCCCN)C(=O)N[C@@H](CC(C)C)C(=O)N[C@@H](C)C(N)=O)[C@@H](C)CC [AFP‐13] | 2.29 ± 0.21 (≈ 1.45 µM) | 1.89 ± 0.04 (≈ 1.2 µM) | 9.32 ± 0.28 (≈ 5.9 µM) | < 10 | 6.26 ± 0.34 (≈ 3.96 µM) | 7.81 (≈ 4.95 µM) | more than 99% | 7.58 | 90 | 8.00 | effectively reduce the pathological damage to organs | 10.89 | 2.85 | 11.51 | 2.96 | 5.66 | 5.11 | disrupting the cell wall and membrane of fungi in a time‐dependent manner
